The record followed here is patent US20090263375A1 (WISCONSIN ALUMNI RESEARCH FOUNDATION, published 2009).

The target of this experiment is T1, His-Star-PAP (full length His-tagged Speckle Targeting and PIPKIα Regulated Poly(A) Polymerase) (human, UniProt Q9H6E5 1-874).
T1 construct: Full length; also called His-tagged Star-PAP; not shown: His tag from the pET28 vector
T1 sequence: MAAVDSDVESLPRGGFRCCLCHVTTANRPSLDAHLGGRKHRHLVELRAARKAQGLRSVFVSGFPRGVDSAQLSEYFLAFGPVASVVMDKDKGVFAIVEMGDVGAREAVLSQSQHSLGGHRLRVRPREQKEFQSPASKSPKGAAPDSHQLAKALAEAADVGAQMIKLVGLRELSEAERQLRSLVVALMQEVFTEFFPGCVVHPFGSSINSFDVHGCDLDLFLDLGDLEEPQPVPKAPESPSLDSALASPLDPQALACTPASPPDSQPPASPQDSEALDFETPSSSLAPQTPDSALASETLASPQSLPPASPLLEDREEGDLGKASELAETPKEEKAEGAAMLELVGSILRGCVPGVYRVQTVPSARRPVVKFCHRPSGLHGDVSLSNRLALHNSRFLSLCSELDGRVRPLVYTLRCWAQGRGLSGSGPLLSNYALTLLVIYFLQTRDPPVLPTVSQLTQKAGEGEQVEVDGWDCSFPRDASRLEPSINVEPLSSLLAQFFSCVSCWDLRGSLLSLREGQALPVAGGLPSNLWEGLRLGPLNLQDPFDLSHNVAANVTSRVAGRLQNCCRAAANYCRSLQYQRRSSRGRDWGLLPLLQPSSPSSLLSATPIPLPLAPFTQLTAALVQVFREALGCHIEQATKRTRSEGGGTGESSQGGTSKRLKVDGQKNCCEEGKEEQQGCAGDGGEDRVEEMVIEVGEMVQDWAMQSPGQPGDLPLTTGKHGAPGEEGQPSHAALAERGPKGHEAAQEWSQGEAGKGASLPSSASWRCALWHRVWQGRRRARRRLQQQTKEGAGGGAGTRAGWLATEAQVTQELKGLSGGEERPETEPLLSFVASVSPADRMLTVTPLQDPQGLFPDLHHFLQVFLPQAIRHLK
Put plainly: in vitro GST pulldown.

B1: GST alone (other)
chain: not shown
notes: Negative control of the GST pulldown
For B1, the binding result is on record as “no binding”.
